Measured values as given in patent US10322110B2, “Imidazole-based antimicrobial agents” (priority 2014, dated 2019).
At least one read-out could not be matched to a standard name with certainty.

Key:
[1] = system: platensimycin-resistant Staphylococcus aureus; experiment: broth microdilution MIC assay, platensimycin-resistant MRSA (COL); type: cell-based; settings: MIC activity class
[2] = system: moenomycin-resistant Staphylococcus aureus; experiment: broth microdilution MIC assay, moenomycin-resistant MRSA (COL); type: cell-based; settings: MIC activity class
[3] = system: Streptococcus pneumoniae (Chester, ATCC49619); experiment: broth microdilution MIC assay, Streptococcus pneumoniae; type: cell-based; settings: for Antibacterial activity Streptococcus pneumoniae: MIC100 class score, broth microdilution, 24 h; for Antibacterial activity SP (Streptococcus pneumoniae): MIC activity class
[4] = system: daptomycin-resistant Staphylococcus aureus; experiment: broth microdilution MIC assay, daptomycin-resistant MRSA (COL); type: cell-based; settings: MIC activity class
[5] = system: linezolid-resistant Staphylococcus aureus; experiment: broth microdilution MIC assay, linezolid-resistant MRSA (COL); type: cell-based; settings: MIC activity class
[6] = system: MRSA (COL) resistant to triclosan; experiment: broth microdilution MIC assay, triclosan-resistant MRSA (COL); settings: MIC activity class
[7] = system: vancomycin-resistant Enterococcus faecalis (ATCC51575); type: cell-based; settings: MIC activity class
[8] = system: vancomycin-resistant Staphylococcus aureus; experiment: broth microdilution MIC assay,  MRSA (COL); type: cell-based; settings: MIC activity class

Compound | Antibacterial activity MRSA strains with additional resistance P (platensimycin) [1] | Antibacterial activity MRSA strains with additional resistance M (moenomycin) [2] | Antibacterial activity Streptococcus pneumoniae [3] | Antibacterial activity MRSA strains with additional resistance T (triclosan) [6] | further results
Cc1nc(-c2ccc(-c3ccc(Cl)cc3Cl)o2)[nH]c1-c1ccccc1 [Compound 1] | 3 (MIC100 of 3-10 μg/ml) | 3 (MIC100 of 3-10 μg/ml) | – | – | –
Cc1[nH]c(-c2ccc(-c3cccc(Cl)c3Cl)o2)nc1-c1ccccc1 [Compound 2] | – | – | 3 (MIC100 of 2-5 μg/ml) | – | Antibacterial activity SP (Streptococcus pneumoniae) [3]: 3 (MIC100 of 2-5 μg/ml); Antibacterial activity MRSA strains with additional resistance D (daptomycin) [4]: 3 (MIC100 of 3-10 μg/ml)
Cc1nc(-c2ccc(-c3ccccc3OC(F)(F)F)o2)[nH]c1-c1ccccc1Cl [Compound 19] | – | – | – | – | Antibacterial activity MRSA strains with additional resistance L (linezolid) [5]: 3 (MIC100 of 3-10 μg/ml); Antibacterial activity MRSA strains with additional resistance D (daptomycin) [4]: 3 (MIC100 of 3-10 μg/ml)
Cc1nc(-c2ccc(-c3ccccc3OC(F)(F)F)o2)[nH]c1-c1cccc(Cl)c1 [Compound 21] | 3 (MIC100 of 3-10 μg/ml) | – | – | 3 (MIC100 of 3-10 μg/ml) | –
Cc1[nH]c(-c2ccc(-c3ccccc3OC(F)(F)F)o2)nc1-c1ccc(Cl)cc1 [Compound 24] | 2 (MIC100 of 11-201 μg/ml) | 3 (MIC100 of 3-10 μg/ml) | – | – | Antibacterial activity MRSA strains with additional resistance L (linezolid) [5]: 3 (MIC100 of 3-10 μg/ml)
Cc1[nH]c(-c2ccc(-c3ccccc3OC(F)(F)F)o2)nc1Cc1ccc(Br)cc1 [Compound 30, 4-(4-Bromo-benzyl)-5-methyl-2-[5-(2-trifluoromethoxy-phenyl)-furan-2-yl]-1H-imidazole] | – | – | – | 2 (MIC100 of 11-201 μg/ml) | –
Cc1nc(-c2ccc(-c3cccc(OC(F)(F)F)c3)o2)[nH]c1-c1ccccc1 [Compound 34] | 2 (MIC100 of 11-201 μg/ml) | 3 (MIC100 of 3-10 μg/ml) | 3 (MIC100 of 2-5 μg/ml) | 3 (MIC100 of 3-10 μg/ml) | Antibacterial activity SP (Streptococcus pneumoniae) [3]: 3 (MIC100 of 2-5 μg/ml)
Cc1[nH]c(-c2ccc(-c3ccc(Cl)c(C(F)(F)F)c3)o2)nc1-c1ccccc1 [Compound 39] | 3 (MIC100 of 3-10 μg/ml) | – | – | – | –
Cc1[nH]c(-c2ccc(-c3ccc(Cl)c(C(F)(F)F)c3)o2)nc1-c1ccc(F)cc1 [Compound 42] | – | – | – | – | Antibacterial activity VREFs (vancomycin-resistant EFs) [7]: 2 (MIC100 of 11-201 μg/ml)
Cc1nc(-c2ccc(-c3ccc(Cl)c(OC(F)(F)F)c3)o2)[nH]c1-c1ccc(Cl)cc1 [Compound 44] | – | – | – | – | Antibacterial activity VREFs (vancomycin-resistant EFs) [7]: 2 (MIC100 of 11-201 μg/ml)
Cc1[nH]c(-c2ccc(-c3ccc(C(F)(F)F)cc3)o2)nc1-c1ccccc1 [Compound 45] | 3 (MIC100 of 3-10 μg/ml) | 3 (MIC100 of 3-10 μg/ml) | – | 3 (MIC100 of 3-10 μg/ml) | –
Cc1[nH]c(-c2ccc(-c3ccc(C(F)(F)F)c(Cl)c3)o2)nc1-c1ccc(F)cc1 [Compound 49] | 3 (MIC100 of 3-10 μg/ml) | 3 (MIC100 of 3-10 μg/ml) | – | – | Antibacterial activity SP (Streptococcus pneumoniae) [3]: 3 (MIC100 of 2-5 μg/ml); Antibacterial activity MRSA strains with additional resistance L (linezolid) [5]: 2 (MIC100 of 11-201 μg/ml); Antibacterial activity MRSA strains with additional resistance V (vancomycin) [8]: 3 (MIC100 of 3-10 μg/ml)
Cc1[nH]c(-c2ccc(-c3ccc(OC(F)(F)F)cc3Cl)o2)nc1-c1ccc(F)cc1 [Compound 51] | 2 (MIC100 of 11-201 μg/ml) | – | – | 3 (MIC100 of 3-10 μg/ml) | Antibacterial activity SP (Streptococcus pneumoniae) [3]: 3 (MIC100 of 2-5 μg/ml)
Cc1[nH]c(-c2ccc(-c3cccc(F)c3C)o2)nc1-c1ccccc1 [Compound 60] | 3 (MIC100 of 3-10 μg/ml) | 3 (MIC100 of 3-10 μg/ml) | 3 (MIC100 of 2-5 μg/ml) | 3 (MIC100 of 3-10 μg/ml) | Antibacterial activity SP (Streptococcus pneumoniae) [3]: 3 (MIC100 of 2-5 μg/ml); Antibacterial activity MRSA strains with additional resistance V (vancomycin) [8]: 3 (MIC100 of 3-10 μg/ml)
Cc1ccccc1-c1c[nH]c(-c2ccc(-c3ccccc3OC(F)(F)F)o2)n1 [Compound 66] | 2 (MIC100 of 11-201 μg/ml) | 3 (MIC100 of 3-10 μg/ml) | – | 3 (MIC100 of 3-10 μg/ml) | Antibacterial activity MRSA strains with additional resistance V (vancomycin) [8]: 3 (MIC100 of 3-10 μg/ml)
CN(C)Cc1[nH]c(-c2ccc(-c3ccccc3C(F)(F)F)o2)nc1-c1ccccc1 [Compound 70] | – | – | 3 (MIC100 of 2-5 μg/ml) | – | Antibacterial activity SP (Streptococcus pneumoniae) [3]: 3 (MIC100 of 2-5 μg/ml); Antibacterial activity VREFs (vancomycin-resistant EFs) [7]: 2 (MIC100 of 11-201 μg/ml); Antibacterial activity MRSA strains with additional resistance D (daptomycin) [4]: 3 (MIC100 of 3-10 μg/ml)
Cc1nc(-c2ccc(-c3ccc4occc4c3)o2)[nH]c1-c1ccccc1 [Compound 159] | – | – | 3 (MIC100 of 2-5 μg/ml) | – | –
Cc1nc(-c2ccc(-c3cccc4cc[nH]c34)o2)[nH]c1-c1ccccc1 [Compound 161] | – | – | 3 (MIC100 of 2-5 μg/ml) | – | –
Cc1[nH]c(-c2ccc(-c3ccccc3F)o2)nc1-c1ccccc1 [Compound 162] | – | – | 3 (MIC100 of 2-5 μg/ml) | – | –
Cc1[nH]c(-c2ccc(-c3c(F)cccc3F)o2)nc1-c1ccccc1 [Compound 163] | – | – | 3 (MIC100 of 2-5 μg/ml) | – | –
Cc1cc(F)ccc1-c1ccc(-c2nc(-c3ccccc3)c(C)[nH]2)o1 [Compound 164] | – | – | 3 (MIC100 of 2-5 μg/ml) | – | –
Cc1[nH]c(-c2ccc(-c3ccc(C(C)(C)C)cc3)o2)nc1-c1ccccc1 [Compound 165] | – | – | 2 (MIC100 of 6-10 μg/ml) | – | –
Cc1nc(-c2ccc(-c3ccc(O)cc3F)o2)[nH]c1-c1ccccc1 [Compound 168] | – | – | 3 (MIC100 of 2-5 μg/ml) | – | –
